Measured values reported in the supplement of paper PMC6206098.
± gives the uncertainty stated by the source. The sequences are guide strands of siRNAs; only the seed at positions 2 to 7 varies.

Legend:
H460 = assay: cell viability relative to lipid-only control; higher = less toxic; details: concentration: 10 nM; 96 h; Homo sapiens
M565 = assay: as above; details: concentration: 10 nM; 96 h; Mus musculus
HeyA8 = assay: as above; details: concentration: 10 nM; 96 h; Homo sapiens
3LL = assay: cell viability relative to siNT1 control; HeyA8 human ovarian and H460 human lung cancer; M565 mouse liver and 3LL mouse lung cancer; siNT1 is a non-toxic control siRNA; higher = less toxic; details: concentration: 10 nM; 96 h; Mus musculus
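Throughout, for cell viability relative to lipid-only control: reverse lipid transfection in 384-well plates, in triplicate, of duplexes on a non-toxic 19mer backbone with passenger strand 2′-O-methylated at positions 1 and 2, luminescence viability read-out.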
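Throughout, for cell viability relative to siNT1 control: Luminescence-based viability of cells reverse transfected in 384-well plates with lipid-complexed siRNAs built on a non-toxic 19mer backbone whose passenger strand carries 2′-O-methyl groups at positions 1 and 2, triplicates.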

Sequence	cell viability (H460) [%]	cell viability (M565) [%]	cell viability (HeyA8) [%]	cell viability (3LL) [%]
UGCCCUCACAUGUAAACCAAA	16.4 ± 1.5	20.9 ± 6	10.3 ± 0.17	12.5 ± 4.7
UUCUAGAACAUGUAAACCAAA	50.3 ± 3.2	74.3 ± 17	97.7 ± 4	89.5 ± 9.5
UCGUCGCACAUGUAAACCAAA	43 ± 3.5	46.1 ± 2.2	18.9 ± 1.3	50.8 ± 12
UUCAGCGACAUGUAAACCAAA	71.4 ± 7.6	113 ± 15	75.2 ± 12	94 ± 8.3
UCUCCUAACAUGUAAACCAAA	63.7 ± 3.9	82.4 ± 10	91.1 ± 7	93.7 ± 10
UGAGGCCACAUGUAAACCAAA	15.6 ± 1.7	4.12 ± 1.1	19.9 ± 1.1	8.42 ± 4.3
UUGGGCAACAUGUAAACCAAA	60.8 ± 5.6	68.8 ± 11	67.7 ± 5.5	49.4 ± 7.8
UGGGAGAACAUGUAAACCAAA	21.5 ± 0.97	28.7 ± 4.6	2.29 ± 0.22	11.8 ± 3.3
UAAGCGUACAUGUAAACCAAA	91.1 ± 23	74.1 ± 11	84.2 ± 9.3	74.8 ± 3.2
UUCGGCGACAUGUAAACCAAA	76.2 ± 4.2	63.7 ± 3.5	78.4 ± 6.6	84.8 ± 15
UAAUAUCACAUGUAAACCAAA	81.2 ± 9.6	82.8 ± 5.1	72.2 ± 3.3	41.1 ± 7.8
UGUUCUCACAUGUAAACCAAA	60.1 ± 7.4	33.4 ± 6.1	30.2 ± 2.7	42.5 ± 19
UCAGUAAACAUGUAAACCAAA	55.2 ± 4.5	74.2 ± 6.2	92.8 ± 1.6	90.8 ± 17
UACUAGUACAUGUAAACCAAA	24.7 ± 0.25	51.6 ± 4.8	16.8 ± 0.71	73.4 ± 9.5
UUAGGGGACAUGUAAACCAAA	77.1 ± 7.1	68.5 ± 17	70.3 ± 7.4	55.8 ± 12
UCUCGUAACAUGUAAACCAAA	72.6 ± 10	63.3 ± 13	89.4 ± 13	98 ± 18
UAUGAGGACAUGUAAACCAAA	65.3 ± 11	34.1 ± 12	80.5 ± 8.8	86.1 ± 9.4
UCGAAACACAUGUAAACCAAA	76.4 ± 9	67.4 ± 3.4	71.7 ± 9.7	88.8 ± 22
UUAUACGACAUGUAAACCAAA	80.4 ± 13	100 ± 17	96.2 ± 16	92.4 ± 8.9
UUCGUUAACAUGUAAACCAAA	69.7 ± 11	91.3 ± 3.5	93.7 ± 12	100 ± 22
UUAAGGUACAUGUAAACCAAA	36.5 ± 1.9	21.5 ± 4.2	62.2 ± 2.9	51.1 ± 12
UUUAGCGACAUGUAAACCAAA	83.3 ± 16	90.5 ± 12	102 ± 7.2	93.9 ± 7.4
UCAGCUAACAUGUAAACCAAA	83.6 ± 12	73.5 ± 3.2	91.2 ± 2.4	94.7 ± 15
UAGGCGUACAUGUAAACCAAA	62 ± 8.8	12.9 ± 3.1	45.8 ± 2.7	42.9 ± 12
UAUCAUGACAUGUAAACCAAA	27.6 ± 3.4	82.6 ± 12	91.9 ± 4.3	115 ± 12
UAAUGCGACAUGUAAACCAAA	101 ± 7.3	94.8 ± 24	106 ± 4.2	108 ± 12
UUCACAGACAUGUAAACCAAA	23.6 ± 3.6	75.2 ± 7.5	84.5 ± 13	70.9 ± 23
UAUGCAAACAUGUAAACCAAA	85.7 ± 13	95.8 ± 6.3	99.5 ± 10	112 ± 14
UAGAUAAACAUGUAAACCAAA	90.4 ± 26	63.8 ± 5.4	91.1 ± 6.3	89.2 ± 4.2
